# According to PubChem BioAssay AID540317 (National Center for Advancing Translational Sciences (NCATS), 2011):
# Among all 390,000 compounds or so, about 2,200 (0.56%) were called active. The inconclusive results got no clear call from the source; some entries with a clear call stand among them for comparison. Calls follow the shape of the dose curve; as a rule, active = well fitted inhibition curve with a large enough effect; inconclusive = small, poorly fitted or top-dose-only effect; inactive = no such curve, though single readings can be large or run the other way. Where the call is inconclusive, the potency comes from a doubtful curve fit.
# Biological target: Chromobox protein homolog 1 (Homo sapiens) (UniProt P83916)
# Sequence of UniProt P83916 (P83916 whole entry, looked up): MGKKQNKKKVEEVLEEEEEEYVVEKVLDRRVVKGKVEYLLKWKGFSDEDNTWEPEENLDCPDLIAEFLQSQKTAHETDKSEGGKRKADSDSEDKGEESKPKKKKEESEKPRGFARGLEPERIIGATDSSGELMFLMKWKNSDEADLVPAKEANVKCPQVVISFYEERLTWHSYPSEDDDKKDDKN
# Experiment: HTS for Inhibitors of HP1-beta Chromodomain Interactions with Methylated Histone Tails; also: nearly all actives have a fitted effect of over 70% in size
# Settings: AlphaScreen HP1-beta / biotin-H3K9me3 peptide binding; series mostly up to 114 µM
# How it was run: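 AlphaScreen: HP1-beta (50 nM) preformed 30 min with biotin-H3(1-18)K9me3 peptide (50 nM) in PBS pH 7.4, 0.01% Tween-20. Compound added for 30 min at RT, then streptavidin donor/nickel chelate acceptor beads (10 ug/mL) for 30 min.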
# Potency is read from the fitted curve at half-maximal effect; tags tell the direction and shape of the fitted curve.
row,Compound,Potency
1,Cc1ccc(S(=O)(=O)N2CCN(C(=O)CC(C)(C)C)CC2)cc1,inactive
2,Cc1nnc(SCC(=O)Nc2ccccc2)c2ccccc12,inactive
3,CCOc1ccc(-n2c(SCC(=O)N3CCCCC3)nc3c([nH]c4ccccc43)c2=O)cc1,inactive
4,CCOC(=O)Cc1csc(-n2sc3ccccc3c2=O)n1,"inconclusive: 8.91 µM [inhibitor, full curve, poor fit]"
5,COc1ccc(-c2coc3c(C)c4oc(=O)c(CCC(=O)O)c(C)c4cc23)cc1,"inconclusive: 79.4 µM [inhibitor, single point]"
6,Cc1cc(OCc2nc3ccccc3s2)ccc1N,"inconclusive: 25.1 µM [inhibitor, partial curve]"
7,CN(Cc1ccccc1)Cc1c(O)ccc2ccccc12,"inconclusive: 89.1 µM [inhibitor, single point]"
8,Cc1cccc(C(=O)c2c(N)sc3c2CCCC3)c1,inactive
9,Cc1ccc(NC(=O)CN2C(=O)S/C(=C\c3cc(Cl)c(OCC(=O)O)c(Cl)c3)C2=O)cc1,active: 20 µM
10,Cc1cc(O)c(S(=O)(=O)c2ccccc2)c(C)c1NS(=O)(=O)c1ccccc1,inactive
11,COc1ccc(NC(=S)NC(=O)c2ccccc2Cl)cc1,"inconclusive: 35.5 µM [inhibitor, single point]"
12,O=C1CC(N2CCN(c3ccc(O)cc3)CC2)C(=O)N1c1ccc2c(c1)OCO2 (centres undefined),"inconclusive: 89.1 µM [inhibitor, single point]"
13,O=C(Nc1nc(-c2ccco2)c(-c2ccco2)s1)c1c(F)cccc1Cl,"inconclusive: 22.4 µM [inhibitor, full curve]"
14,Cc1cccc(N2CCN(c3ccc(C(=O)O)cc3NC(=O)c3ccccc3F)CC2C)c1 (centres undefined),"inconclusive: 70.8 µM [inhibitor, single point]"
15,CC(C)CC(=O)Nc1c(C(=O)N2CCN(c3ccccc3F)CC2)oc2ccccc12,inactive
16,C#CCOCCOCCOCCNc1nc(N2CCN(C(=O)CCCCCCCCCCNC(=O)[C@H](CO)n3cc(CCCSC)nn3)CC2)nc(N2CCN(C(=O)CCCCCCCCCCNC(=O)[C@H](CCCCN)n3cc(CCO)nn3)CC2)n1,"inconclusive: 70.8 µM [inhibitor, partial curve]"
17,CC(C)n1ncc2c(C(=O)Nc3ccc(S(N)(=O)=O)cc3)cc(C3CC3)nc21,"inconclusive: 14.1 µM [inhibitor, full curve]"
18,COc1ccc(C2(c3ccc(OC)cc3)NC(=O)N(Cn3nnc4ccccc4c3=O)C2=O)cc1,inactive
19,CC(=O)Nc1ccc(NC(=O)Cn2c(CC(=O)N3CCCC3)nc3ccccc32)cc1,"inconclusive: 39.8 µM [inhibitor, single point]"
20,COc1ccc(-c2cc(=O)n(-c3ccc([N+](=O)[O-])cc3)[nH]2)cc1,"inconclusive: 31.6 µM [inhibitor, single point]"
21,CC1Cc2ccccc2N1Cc1cccc([N+](=O)[O-])c1 (centres undefined),active: 31.6 µM
22,c1cc2c3c(cccc3c1)NN=N2,"inconclusive: 50.1 µM [inhibitor, single point]"

row,Compound,Potency
1,O=C(NNC(=O)C1CCCN(c2ncccn2)C1)c1ccc(F)cc1 (centres undefined),inactive
2,CCC(CC)c1nnc(NC(=O)c2ccc(N3CCCCC3)c([N+](=O)[O-])c2)s1,"inconclusive: 15.8 µM [inhibitor, partial curve, poor fit]"
3,CCCNc1cc(=S)nc(N)[nH]1,"inconclusive: 25.1 µM [inhibitor, partial curve]"
4,O=C(NCCCn1ccnc1)c1nn2c(C(F)(F)F)cc(-c3ccc(Br)cc3)nc2c1Cl,"inconclusive: 50.1 µM [inhibitor, partial curve, poor fit]"
5,COc1ccc(NC(=S)Nc2ccc3nsnc3c2)cc1,"inconclusive: 39.8 µM [inhibitor, partial curve]"
6,COc1ccccc1NC(=S)NCc1ccc2c(c1)cc(C)n2C,"inconclusive: 39.8 µM [inhibitor, full curve]"
7,c1ccc2c(c1)OCC(c1nn3c(Cn4nnc5ccccc54)nnc3s1)O2 (centres undefined),"inconclusive: 28.2 µM [inhibitor, single point]"
8,C=C(C(=O)c1ccccc1)C(NC(C)(C)C)c1ccccc1 (centres undefined),inactive
9,COc1ccc(C(=O)NNC(=O)CNC(=O)C2CCCCC2)cc1,inactive
10,Cc1ccc(N2CC(C(=O)NC3=NCCS3)CC2=O)cc1C (centres undefined),inactive
11,CCOc1cc(/C=C2\SC(=Nc3ccc(CC)cc3)NC2=O)ccc1OCC(=O)O,"inconclusive: 39.8 µM [inhibitor, single point]"
12,CC(Cc1nnc(SCC(=O)O)n1N)c1ccccc1 (centres undefined),inactive
13,O=C(CSc1nnc(-c2cccc(S(=O)(=O)N3CCCC3)c2)n1-c1ccccc1)Nc1ccc(C(=O)O)cc1,inactive
14,O=C(COC(=O)/C=C/c1ccc(Cl)cc1)NCCN1C(=O)CSC1=O,"inconclusive: 35.5 µM [inhibitor, single point]"
15,COc1ccc(N2CCN(C(=O)c3nc(-c4ccc(Cl)cc4)n4c3CCCCC4)CC2)cc1,"inconclusive: 35.5 µM [inhibitor, partial curve]"
16,CN1CCN(CCCN2c3ccccc3Sc3ccc(C(F)(F)F)cc32)CC1,"inconclusive: 79.4 µM [inhibitor, partial curve]"
17,O=C(CN1CCCC1)Nc1ccc(Br)cc1,"inconclusive: 22.4 µM [inhibitor, full curve]"
18,CC1CCCC(C)N1/N=C/c1ccccc1F (centres undefined),"inconclusive: 50.1 µM [inhibitor, partial curve, poor fit]"
19,COc1cc(OC)c(OC)cc1/C=C1\CC(C)C/C(=C\c2cc(OC)c(OC)cc2OC)C1=O (centres undefined),"inconclusive: 31.6 µM [inhibitor, partial curve]"
20,CCOC(=O)C1CCCN(Cc2ccc(OCC)cc2)C1 (centres undefined),"inconclusive: 89.1 µM [inhibitor, single point]"
21,COCC1COS(=O)(=O)NC1(C)C (centres undefined),inactive
22,CSc1ccccc1OCc1cc(C(=O)N2CCc3[nH]cnc3C2c2ccccn2)no1 (centres undefined),"inconclusive: 50.1 µM [inhibitor, partial curve]"
